Results published in the supplement of paper PMC11880418.
Where a name gives a salt, the structure may show the parent alone. The list shows a part of the results. The data scatter; read single values as rough.

system: SUM159; test: ALDHbr (CSC) cell proportion score relative to DMSO vehicle (ratio to DMSO); breast (SUM159) / gastric (MKN45) / pancreatic (PANC1) / colon cancer lines; ALDHbr cells have high ALDH activity and are rich in cancer stem cells (CSC); higher = more CSC (ALDHbr) cells remaining; conditions: 10 µM; 72 h
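Note: High-content imaging of ALDEFLUOR-stained cells with Hoechst-labelled nuclei in 384-well plates, triplicate wells, scored as Z-score against 0.1% DMSO vehicle, negative meaning fewer ALDHbr cells.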

Question: With CC(=O)O[C@]1(C(C)=O)CC[C@H]2[C@@H]3C=C(Cl)C4=CC(=O)CC[C@]4(C)[C@H]3CC[C@@]21C [Chlormadinone acetate] as the compound, how does the ALDHbr read?
Answer: 0.519

Question: With O=c1oc2ccccc2c(O)c1Cc1c(O)c2ccccc2oc1=O [Dicumarol] as the compound, how does the ALDHbr read?
Answer: 1.07

Question: Which ALDHbr does the source give for CC(C)(C)NCC(O)COc1cccc2c1CCC(=O)N2 (stereo not drawn) [Carteolol hydrochloride] here?
Answer: 1.83

Question: With CN(CCCCCCCCCCN(C)C(=O)Oc1cccc([N+](C)(C)C)c1)C(=O)Oc1cccc([N+](C)(C)C)c1 [Demecarium bromide] as the compound, how does the ALDHbr read?
Answer: 1.6

Question: How did the ALDHbr turn out when Clc1ccc(CSC(Cn2ccnc2)c2ccc(Cl)cc2Cl)cc1 (stereo not drawn) [Sulconazole nitrate] was run?
Answer: 1.83

Question: Which ALDHbr does the source give for COc1ccc(C(=O)NCc2ccc(OCCN(C)C)cc2)cc1OC [Itopride] here?
Answer: 1.18

Question: With CN(C)C(=N)NC(=N)N [Metformin hydrochloride] as the compound, how does the ALDHbr read?
Answer: 0.932

Question: Which ALDHbr does the source give for CN(C)CCN(Cc1cccs1)c1ccccn1 [Methapyrilene hydrochloride] here?
Answer: 1.03

Question: Cn1c([N+](=O)[O-])cnc1COC(N)=O [Ronidazole] was tested. Which ALDHbr did it give?
Answer: 1.06

Question: With O=C(O)c1ccccc1Nc1cccc(C(F)(F)F)c1 [Flufenamic acid] as the compound, how does the ALDHbr read?
Answer: 0.871

Question: How did the ALDHbr turn out when Clc1ccc(C(Cn2ccnc2)OCc2csc3c(Cl)cccc23)c(Cl)c1 (stereo not drawn) [Sertaconazole nitrate] was run?
Answer: 1.03

Question: How did the ALDHbr turn out when C=CC1=C(C(=O)O)N2C(=O)[C@@H](NC(=O)/C(=N\O)c3csc(N)n3)[C@H]2SC1 [Cefdinir] was run?
Answer: 0.911

Question: With Cc1c(C)c2c(c(C)c1O)CCC(C)(COc1ccc(CC3SC(=O)NC3=O)cc1)O2 (stereo not drawn) [Troglitazone] as the compound, how does the ALDHbr read?
Answer: 0.749

Question: CNCC(O)c1ccc(OC(=O)C(C)(C)C)c(OC(=O)C(C)(C)C)c1 (stereo not drawn) [Dipivefrin hydrochloride] was tested. Which ALDHbr did it give?
Answer: 2.28

Question: How did the ALDHbr turn out when C[C@]12C=CC(=O)C=C1CC[C@H]1[C@@H]3C[C@@H](O)[C@](O)(C(=O)CO)[C@@]3(C)C[C@H](O)[C@@]12F [Triamcinolone] was run?
Answer: 1.12

Question: With CCN(CC)CCOC(=O)C(c1ccccc1)C1CCCCC1 (stereo not drawn) [Drofenine hydrochloride] as the compound, how does the ALDHbr read?
Answer: 0.769

Question: Which ALDHbr does the source give for O=C1CC2(CCCC2)CC(=O)N1CCCCN1CCN(c2ncccn2)CC1 [Buspirone hydrochloride] here?
Answer: 0.59

Question: How did the ALDHbr turn out when CC(C)(C)NCC(O)c1ccc(O)c(CO)c1 (stereo not drawn) [Salbutamol] was run?
Answer: 1.93

Question: For NC1CCN(c2nc3c(cc2F)c(=O)c(C(=O)O)cn3-c2ccc(F)cc2F)C1 (stereo not drawn) [Tosufloxacin hydrochloride], which ALDHbr is on record?
Answer: 0.913

Question: Which ALDHbr does the source give for Cc1ccc(C)c(OCCCC(C)(C)C(=O)O)c1 [Gemfibrozil] here?
Answer: 0.934

Question: How did the ALDHbr turn out when N#Cc1ccc(C(c2ccc(C#N)cc2)n2cncn2)cc1 [Letrozole] was run?
Answer: 0.836

Question: How did the ALDHbr turn out when CN/C(=N\CCSCc1nc[nH]c1C)NC#N [Cimetidine] was run?
Answer: 1.06

Question: With C[C@@H](O)[C@H]1C(=O)N2C(C(=O)O)=C(SCCNC=N)C[C@H]12 [Imipenem] as the compound, how does the ALDHbr read?
Answer: 0.972

Question: For COC(c1ccccc1)(c1ccccc1)[C@H](Oc1nc(C)cc(C)n1)C(=O)O [Ambrisentan], which ALDHbr is on record?
Answer: 0.672

Question: How did the ALDHbr turn out when CN(C)CCOc1ccc(/C(=C(/CCCl)c2ccccc2)c2ccccc2)cc1 [Toremifene] was run?
Answer: 0.615

Question: How did the ALDHbr turn out when CN[C@@H]1[C@H](O[C@H]2[C@H](O[C@H]3[C@H](O)[C@@H](O)[C@H](NC(=N)N)[C@@H](O)[C@@H]3NC(=N)N)O[C@@H](C)[C@]2(O)CO)O[C@@H](CO)[C@H](O)[C@H]1O [Dihydrostreptomycin sulfate] was run?
Answer: 1.06

Question: O=C(O)CCNC(=O)c1ccc(/N=N/c2ccc(O)c(C(=O)O)c2)cc1 [Balsalazide Sodium] was tested. Which ALDHbr did it give?
Answer: 1.03

Question: Which ALDHbr does the source give for Cc1cccc(Nc2ccncc2S(=O)(=O)NC(=O)NC(C)C)c1 [Torsemide] here?
Answer: 0.901

Question: CN1[C@@H]2CC[C@H]1C[C@@H](OC(=O)c1c[nH]c3ccccc13)C2 [Tropisetron hydrochloride] was tested. Which ALDHbr did it give?
Answer: 1.14

Question: For Nc1nc2[nH]cc(CCc3ccc(C(=O)N[C@@H](CCC(=O)O)C(=O)O)cc3)c2c(=O)[nH]1 [Pemetrexed disodium], which ALDHbr is on record?
Answer: 0.954

Question: With C[C@H](Cc1cc2c(c(C(N)=O)c1)N(CCCO)CC2)NCCOc1ccccc1OCC(F)(F)F [Silodosin] as the compound, how does the ALDHbr read?
Answer: 0.863

Question: With NC(N)=Nc1nc(CSCC/C(N)=N/S(N)(=O)=O)cs1 [Famotidine] as the compound, how does the ALDHbr read?
Answer: 1.02

Question: For CCNC(=O)CCC/C=C\C[C@@H]1[C@@H](/C=C/[C@@H](O)CCc2ccccc2)[C@H](O)C[C@@H]1O [Bimatoprost], which ALDHbr is on record?
Answer: 1.21
